About 18,000 (5.8%) of roughly 310,000 compounds were called active. The shares of active, inactive and inconclusive entries below differ from those in the screen. Calls follow the shape of the dose curve; as a rule, active = well fitted inhibition curve with a large enough effect; inconclusive = small, poorly fitted or top-dose-only effect, or another doubt; inactive = no such curve, though single readings can be large or run the other way. No potency is given beside an inconclusive call; the fits are too rough.
assay: Primary qHTS for delayed death inhibitors of the malarial parasite plastid, 48 hour incubation; conditions: P. falciparum luciferase growth in erythrocytes; series mostly up to 28.7 µM
Method in brief: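 First compound was added to culture medium, then infected red cells at 0.1% parasitemia and 2% hematocrit (final). After incubation at 37 C under 5% CO2, luciferase detection reagent was dispensed and light output recorded.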
Potency is read from the fitted curve at half-maximal effect; tags tell the direction and shape of the fitted curve.

Question: With `O=C1c2ccccc2-c2c1cccc2C(=O)N1CCCCC1` as the compound, how does the Potency read?
Answer: Its Potency is “inactive”.

Question: For `Cn1nc(C(C)(C)C)cc1C(=O)NCc1cc(F)cc2c1OCOC2`, which Potency is on record?
Answer: The Potency was inconclusive [inhibitor, single point].

Question: Which Potency does the source give for `CCC(=O)NC(=S)Nc1ccc(NC(=O)c2ccco2)cc1` here?
Answer: Its Potency is inconclusive [inhibitor, partial curve, poor fit].

Question: For `CCC(C)NC(=O)COc1ccc(S(=O)(=O)N2CCOCC2)cc1` (configuration not stated), which Potency is on record?
Answer: The Potency was “inactive”.

Question: Which Potency does the source give for `CC1(C)CC(=O)C2=C(C1)OC(/N=C/N1CCCC1)=C(C#N)C2c1ccccc1` (configuration not stated) here?
Answer: Its Potency is inconclusive [inhibitor, partial curve, poor fit].

Question: Which Potency does the source give for `CCOc1cc(NC(=S)NC)c(OCC)cc1NC(=O)c1ccco1` here?
Answer: Its Potency is inconclusive [inhibitor, full curve, poor fit].

Question: For `O=C(CCN1CCCC1)c1cccs1`, which Potency is on record?
Answer: The Potency was inconclusive [inhibitor, single point].

Question: For `CCOC(=O)CCSc1nc(N2CCOCC2)c2c(c1C#N)CC(C)(C)OC2`, which Potency is on record?
Answer: Its Potency is active: 4.65 µM.

Question: For `CC(=O)c1c(C)[nH]c(C(=O)N(C)C(c2ccccc2)c2ccccc2)c1C`, which Potency is on record?
Answer: The Potency was inconclusive [inhibitor, single point].

Question: Which Potency does the source give for `Cc1ccc(C(=O)Nc2ccc(Nc3ccccc3)cc2)c(Cl)c1` here?
Answer: Its Potency is “inactive”.

Question: Which Potency does the source give for `Cc1ccc(-c2ccccc2)n1-c1cccc(C(=O)O)c1` here?
Answer: The Potency was “inactive”.

Question: With `N#Cc1cc2c(nc1SCC(=O)O)CCCC2` as the compound, how does the Potency read?
Answer: The Potency was “inactive”.

Question: For `COc1cccc(CNC(=O)CCC2CCCN(c3cc(C)nc(N(C)C)n3)C2)c1` (configuration not stated), which Potency is on record?
Answer: Its Potency is inconclusive [inhibitor, partial curve].

Question: With `COc1ccc(NC(=O)CSc2ccc3nnc(-c4ccccn4)n3n2)cc1` as the compound, how does the Potency read?
Answer: The Potency was inconclusive [inhibitor, partial curve].

Question: For `CCOC(=O)c1sc(-c2ccc(F)cc2)cc1NC(=O)Nc1ccccc1OC`, which Potency is on record?
Answer: The Potency was inconclusive [inhibitor, full curve, poor fit].

Question: For `CCCCNC(=O)CSc1nc2ccsc2c(=O)n1C1CCN(C(=O)OCC)CC1`, which Potency is on record?
Answer: Its Potency is inconclusive [inhibitor, full curve, poor fit].

Question: With `CCOc1cc(/C=C2\SC(=Nc3ccccc3)N(c3ccccc3)C2=O)ccc1OCC(=O)O` as the compound, how does the Potency read?
Answer: The Potency was inconclusive [inhibitor, single point].

Question: For `CN(C)CCCN(C(=O)c1ccc(S(=O)(=O)N2CCCC2)cc1)c1nc2ccc(Br)cc2s1`, which Potency is on record?
Answer: The Potency was inconclusive [inhibitor, partial curve].

Question: Which Potency does the source give for `CC1(C)Cc2c(C#N)c(NCCN3CCOCC3)nc(-c3ccco3)c2CO1` here?
Answer: Its Potency is active: 13.1 µM.

Question: Which Potency does the source give for `c1cnc2ccc(C(c3nnnn3C3CCCC3)N3CCN4CCCC4C3)cc2c1` (configuration not stated) here?
Answer: Its Potency is inconclusive [inhibitor, single point].

Question: With `CC(=O)c1ccc2c(c1)C1C(Cl)C(Sc3ccccc3[N+](=O)[O-])CC1C(c1ccccc1)N2` (configuration not stated) as the compound, how does the Potency read?
Answer: Its Potency is inconclusive [inhibitor, partial curve].

Question: Which Potency does the source give for `CCC1CCCCN1CCCNC(=O)CCNC(=O)Cn1cnc2ccccc2c1=O` (configuration not stated) here?
Answer: Its Potency is “inactive”.

Question: Which Potency does the source give for `COC(=O)c1ccccc1NC(=O)c1cccc(NC(=O)c2ccc(Br)o2)c1C` here?
Answer: The Potency was inconclusive [inhibitor, single point].

Question: Which Potency does the source give for `CC[C@@]1(O)C(=O)OCc2c1cc1n(c2=O)Cc2cc3c(CN(C)C)c(O)ccc3nc2-1` here?
Answer: Its Potency is active: 8.49 µM.

Question: Which Potency does the source give for `Cc1cc(C)c(OCC(=O)N/N=C/c2ccc3c(c2)OCO3)c(C)c1` here?
Answer: The Potency was “inactive”.

Question: With `CCCC1/C(=N/O)CC(c2ccccc2)NC1c1ccccc1` (configuration not stated) as the compound, how does the Potency read?
Answer: Its Potency is active: 11.7 µM.

Question: For `CC1(C)CC(=O)C2=C(C1)N(c1ccc(F)cc1)C(N)=C(C#N)C2c1cccs1` (configuration not stated), which Potency is on record?
Answer: The Potency was inconclusive [inhibitor, partial curve, poor fit].

Question: Which Potency does the source give for `c1ccc(OCCOCCSc2ncccn2)cc1` here?
Answer: The Potency was “inactive”.

Question: Which Potency does the source give for `Cc1ccc(N2CC(NS(=O)(=O)c3cccnc3)CC2=O)cc1C` (configuration not stated) here?
Answer: The Potency was inconclusive [inhibitor, single point].

Question: With `Nc1nc(-c2cccnc2)nn1C(=O)c1ccccc1Cl` as the compound, how does the Potency read?
Answer: The Potency was “inactive”.

Question: With `COc1ccccc1N(CC(=O)N1CCOCC1)S(C)(=O)=O` as the compound, how does the Potency read?
Answer: Its Potency is “inactive”.

Question: With `Cc1ccc(S(=O)(=O)N2CCCC2)cc1C(=O)N1CCC(C)CC1` as the compound, how does the Potency read?
Answer: The Potency was “inactive”.

Question: Which Potency does the source give for `COc1ccccc1/C=C/C=N/n1c(-c2n[nH]c3c2CCC3)n[nH]c1=S` here?
Answer: Its Potency is inconclusive [inhibitor, single point].

Question: For `CC(=O)Nc1cccc2c1C(=O)N(c1cccc(OC(C)=O)c1)C2=O`, which Potency is on record?
Answer: The Potency was “inactive”.

Question: Which Potency does the source give for `CC(Oc1ccc(Cl)cc1)C(=O)Nc1cccc(S(=O)(=O)N2CCOCC2)c1` (configuration not stated) here?
Answer: The Potency was inconclusive [inhibitor, partial curve].

Question: For `Cc1ccc2nc(-c3cccnc3)c(NC3CCCCC3)n2c1`, which Potency is on record?
Answer: Its Potency is inconclusive [inhibitor, single point].

Question: For `COc1ccc(OC)c(C(=O)N2CCC(n3nccc3NC(=O)CC(C)C)CC2)c1`, which Potency is on record?
Answer: Its Potency is “inactive”.

Question: Which Potency does the source give for `CCO[C@H]1OC(C(=O)NCc2nc3ccccc3[nH]2)=C[C@@H](c2ccc(C(F)(F)F)cc2)[C@@H]1CCCO` here?
Answer: The Potency was inconclusive [inhibitor, full curve].

Question: Which Potency does the source give for `O=C(NCCC1=CCCCC1)C(c1ccccc1)c1ccccc1` here?
Answer: Its Potency is inconclusive [inhibitor, partial curve].

Question: With `Cc1ccc(-c2ccc([C@H]3[C@@H]4C=CCC[C@@]4(C)C(=O)N3Cc3ccccc3)c(F)c2)cc1` as the compound, how does the Potency read?
Answer: Its Potency is inconclusive [inhibitor, full curve, poor fit].

Question: For `O=C(COc1nncc2ccccc12)Nc1c(F)c(F)c(F)c(F)c1F`, which Potency is on record?
Answer: The Potency was “inactive”.

Question: Which Potency does the source give for `C=CCN(C(=O)CNC(=O)c1ccco1)C(C(=O)NC1CCCC1)c1ccc(OC)cc1` (configuration not stated) here?
Answer: Its Potency is “inactive”.

Question: With `CCc1c(C)nc2c(C#N)c[nH]n2c1=O` as the compound, how does the Potency read?
Answer: The Potency was “inactive”.

Question: Which Potency does the source give for `COC(=O)c1ccccc1NC(=O)CCCn1nc(C)c2c(C)n(-c3ccccc3)nc2c1=O` here?
Answer: Its Potency is inconclusive [inhibitor, single point].

Question: Which Potency does the source give for `O=C(N/N=C/c1ccco1)c1cnccn1` here?
Answer: The Potency was “inactive”.

Question: With `O=[N+]([O-])c1ccccc1SN(Cc1ccccc1)c1ccccn1` as the compound, how does the Potency read?
Answer: Its Potency is “inactive”.

Question: For `CC(=O)Cc1nsc(NC(=O)c2ccc(-c3cc(Cl)ccc3Cl)o2)n1`, which Potency is on record?
Answer: Its Potency is inconclusive [inhibitor, single point].

From PubChem BioAssay AID504832 (National Center for Advancing Translational Sciences (NCATS), 2011)
